# Data: the supplement of paper PMC3334620
# Whole data set: some 33,000 sequences, median “E-score (-0.5 to 0.5)” near -0.036, cut for the highest 2% near 0.37. Some of the results follow.
# Target: T1, Yer064c (UniProt P40041)
# T1 sequence: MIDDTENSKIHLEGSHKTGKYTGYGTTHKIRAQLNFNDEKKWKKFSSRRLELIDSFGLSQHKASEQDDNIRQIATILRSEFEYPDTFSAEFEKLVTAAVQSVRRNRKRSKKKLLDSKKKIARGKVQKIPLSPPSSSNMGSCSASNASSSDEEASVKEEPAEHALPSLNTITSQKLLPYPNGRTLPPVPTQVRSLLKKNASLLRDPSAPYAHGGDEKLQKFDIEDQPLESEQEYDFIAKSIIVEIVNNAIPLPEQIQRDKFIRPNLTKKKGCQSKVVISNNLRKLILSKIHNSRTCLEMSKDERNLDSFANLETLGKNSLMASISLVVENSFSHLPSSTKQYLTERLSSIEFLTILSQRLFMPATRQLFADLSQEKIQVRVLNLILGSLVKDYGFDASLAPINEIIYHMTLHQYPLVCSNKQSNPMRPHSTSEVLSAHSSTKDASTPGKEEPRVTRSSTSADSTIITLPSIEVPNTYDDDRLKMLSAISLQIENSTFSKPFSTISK
# Assay: PBM E-score (8-mer binding enrichment) (E-score (-0.5 to 0.5)); higher = stronger / more preferred TF binding; most listed sequences are background and not binding sites
# Conditions: protein concentration: 200 nM; construct: GST-full length
# Outline: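 Universal all-10-mer Agilent arrays, fresh or stripped once, were converted to double-stranded form by primer extension. GST-tagged yeast transcription factors from PURExpress in vitro transcription/translation, full-length or DNA-binding domain only, were applied at about 100-200 nM and detected with fluorescent anti-GST. After masliner normalisation, the Universal PBM Analysis Suite scored each ungapped eight-base word together with its reverse complement by E-score.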
row,Sequence,PBM E-score
1,GACTACGC,0.391
2,CTCCGGAA,-0.109
3,ATATTTGG,0.036
4,CCTACAGG,-0.104
5,CCAGCCCG,-0.178
6,TCTTTCCA,-0.137
7,ATAACAAG,0.00051
8,AAAGGTAA,0.112
9,CTACCTAC,-0.0346
10,CACAGGTA,-0.129
11,GGGGTCAC,0.0345
12,AACTACTT,0.147
13,CAAGCGGG,-0.149
14,CAACGAAC,0.0998
15,AGAGGAGA,-0.00359
16,AGAAATTA,0.22
17,CTGCCGGC,-0.0737
18,GTGGAACA,-0.124
19,GAAACAGA,-0.142
20,TACCCACA,0.206
21,TCTCCCCA,-0.153
22,CAATAACC,0.183
23,GGCCGGTA,-0.113
24,TAAGGGTA,0.0278

row,Sequence,PBM E-score
1,ATGCCGGA,-0.175
2,CCTTATAG,0.0275
3,ACCCTTCA,-0.15
4,ACTAAGCC,0.235
5,CCATATCG,0.212
6,TAGATTGA,0.0941
7,ATGCAATC,-0.0742
8,AAGGCGCG,-0.328
9,ATTCCAAT,-0.025
10,AAACCCGC,-0.259
11,CTTCTTTA,-0.12
12,CACACGAA,0.0255
13,CGTATGAA,0.0601
14,ATGGACTA,0.292
15,ACCAGAAG,-0.0698
16,ACAGACTA,0.0746
17,ATACCTTC,-0.283
18,TGGTTACA,0.118
19,ACCTTCAG,-0.0407
20,GTAAATTA,-0.0771
21,CAGGCCGC,-0.0586
22,CCGGCTCA,-0.114
23,ATGCCGAG,-0.0321
24,ATTACGCC,0.133

row,Sequence,PBM E-score
1,ATGGCTTC,0.156
2,ACTGAGAC,0.338
3,CTGCGAGC,0.112
4,AAATATCC,0.0261
5,ACGCCGAC,0.163
6,TCGGTTAA,0.182
7,CGGGTGGA,-0.183
8,AACCGAAT,-0.0662
9,ATCTGTCA,-0.051
10,GCAAGTAA,-0.0247
11,CTCGATTC,0.0969
12,GTGTGGCA,-0.261
13,ATCTTCAG,0.188
14,ATTTCCGG,-0.0322
15,AAATTGGT,-0.11
16,ACGTGGGC,-0.165
17,GCAGGCTA,-0.118
18,CTGCCGGA,0.0297
19,CACCTTGG,-0.142
20,AGTCAAAA,0.408
21,CTTCAGGA,0.00919
22,CCAGCATA,-0.151
23,ACACTTCA,-0.0543
24,CCTGATAG,-0.2

row,Sequence,PBM E-score
1,ATCGGTCC,-0.188
2,GTCTCGGA,-0.0996
3,AGGCTTGC,-0.191
4,AGAGCTCG,-0.222
5,TATGCACA,0.133
6,CCCCCCTA,-0.277
7,CGCATATA,-0.182
8,GGCGCGTA,-0.299
9,GATATTCC,-0.217
10,TCCTAGGA,-0.336
11,ACTTTACC,0.126
12,TGGGATAA,-0.199
13,GAGTCGAA,0.359
14,ATGATTCC,0.456
15,AGATCAGG,-0.14
16,GTTCTATA,-0.0345
17,CTTGACCC,-0.164
18,CTTCATGC,-0.12
19,AGCGTCAC,-0.182
20,AATGACAT,-0.14
21,ACCTCAAG,0.00326
22,CATTGAAC,0.172
